Source: the supplement of paper PMC4604168 (melanoma cell lines)
This is one part of the list. Most values come without repeats; read them as rough.

Assays:
Test in all cases: cell count relative to DMSO control; melanoma cells; higher = more viable cells
Conditions in all cases: library dose: low library concentration; 72 h
[1] = test system: COLO792
[2] = test system: COLO800
[3] = test system: COLO829
[4] = test system: G361
[5] = test system: IPC-298
[6] = test system: IST-MEL1
[7] = test system: LB2518-MEL
[8] = test system: LOXIMVI
[9] = test system: MEL-HO
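Further: cell number obtained by counting DAPI-stained nuclei in high-throughput microscope images with image analysis software, screen run in 1,536-well plates.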

| Compound | cell count [1] | cell count [2] | cell count [3] | cell count [4] | cell count [5] | cell count [6] | cell count [7] | cell count [8] | cell count [9] |
| --- | --- | --- | --- | --- | --- | --- | --- | --- | --- |
| CS(=O)(=O)c1ccc(C(=O)Nc2ccc(Cl)c(-c3ccccn3)c2)c(Cl)c1 [vismodegib] + Cc1cc([N+](=O)[O-])ccc1NS(=O)(=O)c1cc(Cl)ccc1Cl [FH535] (first compound 1 µM, partner dose 1 µM) | 102% | 128% | 95.7% | 94.3% | 90.2% | 91.1% | 98.4% | 75.8% | 101% |
| CN(c1ncccc1CNc1nc(Nc2ccc3c(c2)CC(=O)N3)ncc1C(F)(F)F)S(C)(=O)=O + O=C(Nc1cccc(Cl)c1)Nc1ncc(CCNc2ncnc3ccsc23)s1 [SNS314] (first compound 0.08 µM, partner dose 0.0008 µM) | 85.8% | 107% | 84.1% | 82.7% | 104% | 86.2% | 85.8% | 80.9% | 92% |
| CN(c1ncccc1CNc1nc(Nc2ccc3c(c2)CC(=O)N3)ncc1C(F)(F)F)S(C)(=O)=O + COc1cc2ncnc(Nc3ccc(Oc4ccccc4)cc3)c2cc1OC [SrcI1] (first compound 0.08 µM, partner dose 2 µM) | 78.2% | 180% | 85.2% | 100% | 87.1% | 95% | 106% | 105% | 79.4% |
| C=C(c1ccc(C(=O)O)cc1)c1cc2c(cc1C)C(C)(C)CCC2(C)C [Bexarotene] + C=CCn1c(=O)c2cnc(Nc3ccc(N4CCN(C)CC4)cc3)nc2n1-c1cccc(C(C)(C)O)n1 [MK1775] (first compound 2 µM, partner dose 0.02 µM) | 88.3% | 84.3% | 103% | 85% | 93.3% | 95.3% | 73.3% | 75.6% | 101% |
| CN(c1ncccc1CNc1nc(Nc2ccc3c(c2)CC(=O)N3)ncc1C(F)(F)F)S(C)(=O)=O + Oc1cc(-c2nc(-c3ccccc3)[nH]c2-c2ccncc2)ccc1Cl [L779450] (first compound 0.08 µM, partner dose 0.2 µM) | 104% | 95% | 99.2% | 84.9% | 80.1% | 87.9% | 80.7% | 97.2% | 97.4% |
| NC1(c2ccc(-c3nc4ccn5c(=O)[nH]nc5c4cc3-c3ccccc3)cc2)CCC1 + N#Cc1c(O)c2c(-c3ccc(-c4ccccc4O)cc3)csc2[nH]c1=O [A769662] (first compound 0.4 µM, partner dose 2 µM) | 60.3% | 85.9% | 79.4% | 94.5% | 99.4% | 99.2% | 105% | 116% | 79.5% |
| C=C(c1ccc(C(=O)O)cc1)c1cc2c(cc1C)C(C)(C)CCC2(C)C [Bexarotene] + CO[C@@H]1[C@H](N(C)C(=O)c2ccccc2)C[C@H]2O[C@]1(C)n1c3ccccc3c3c4c(c5c6ccccc6n2c5c31)C(=O)NC4 [Midostaurin] (first compound 2 µM, partner dose 0.08 µM) | 97.9% | 151% | 101% | 73% | 95.5% | 93.6% | 89.2% | 60.9% | 84.1% |
| CS(=O)(=O)c1ccc(C(=O)Nc2ccc(Cl)c(-c3ccccn3)c2)c(Cl)c1 [vismodegib] + O=C(Nc1ccccc1)c1cc([N+](=O)[O-])ccc1Cl [GW9662] (first compound 1 µM, partner dose 2 µM) | 114% | 110% | 90.1% | 84.2% | 103% | 104% | 107% | 78.8% | 103% |
| CN(c1ncccc1CNc1nc(Nc2ccc3c(c2)CC(=O)N3)ncc1C(F)(F)F)S(C)(=O)=O + Cc1cc(N2CCOCC2)cc2[nH]c(-c3c(NC[C@@H](O)c4cccc(Cl)c4)cc[nH]c3=O)nc12 [BMS536924] (first compound 0.08 µM, partner dose 0.2 µM) | 76.5% | 58.4% | 92.9% | 86% | 98.1% | 99% | 103% | 104% | 93.9% |
| C=C(c1ccc(C(=O)O)cc1)c1cc2c(cc1C)C(C)(C)CCC2(C)C [Bexarotene] + O=C(O)c1ccc(-c2c[nH]c3ncc(-c4ccccc4)cc23)cc1C1CCCC1 [GSK650394] (first compound 2 µM, partner dose 0.16 µM) | 84.5% | 110% | 76.7% | 85.8% | 108% | 98.7% | 116% | 108% | 79.8% |
| CS(=O)(=O)c1ccc(C(=O)Nc2ccc(Cl)c(-c3ccccn3)c2)c(Cl)c1 [vismodegib] + COc1ccc2c(c1)CCC1C2CCC2(C)C(NCCCCCCN3C(=O)C=CC3=O)CCC12 [U73122] (first compound 1 µM, partner dose 0.4 µM) | 104% | 102% | 95.7% | 98.8% | 98.2% | 90.5% | 103% | 109% | 99.5% |
| C=C(c1ccc(C(=O)O)cc1)c1cc2c(cc1C)C(C)(C)CCC2(C)C [Bexarotene] + CCCCCCCCCCCC1=C(O)C(=O)C=C(O)C1=O [Embelin] (first compound 2 µM, partner dose 1.2 µM) | 98.1% | 102% | 99.1% | 82.1% | 99.9% | 106% | 128% | 171% | 93.7% |
| NC1(c2ccc(-c3nc4ccn5c(=O)[nH]nc5c4cc3-c3ccccc3)cc2)CCC1 + COc1cc2ncnc(Nc3ccc(Oc4ccccc4)cc3)c2cc1OC [SrcI1] (first compound 0.4 µM, partner dose 2 µM) | 60.4% | 91.1% | 86.9% | 90.3% | 104% | 96.1% | 80.8% | 114% | 74.3% |
| CN(c1ncccc1CNc1nc(Nc2ccc3c(c2)CC(=O)N3)ncc1C(F)(F)F)S(C)(=O)=O + Cc1ccc(NC(=O)c2cccc(N(C)C)c2)cc1NC(=O)c1ccc(O)cc1 [ZM336372] (first compound 0.08 µM, partner dose 2 µM) | 89.9% | 94.3% | 79.7% | 96.8% | 85.2% | 95.1% | 96.4% | 104% | 81.4% |
| C=C(c1ccc(C(=O)O)cc1)c1cc2c(cc1C)C(C)(C)CCC2(C)C [Bexarotene] + Cc1cc([N+](=O)[O-])ccc1NS(=O)(=O)c1cc(Cl)ccc1Cl [FH535] (first compound 2 µM, partner dose 1 µM) | 78.7% | 128% | 112% | 74.1% | 86.5% | 83.2% | 94.3% | 156% | 95.2% |
| CCCS(=O)(=O)Nc1ccc(F)c(C(=O)c2c[nH]c3ncc(Cl)cc23)c1F + CN(NC(=O)CC(=O)NN(C)C(=S)c1ccccc1)C(=S)c1ccccc1 [STA4783] (first compound 0.08 µM, partner dose 0.006 µM) | 72.3% | 62.6% | 76.2% | 73.4% | 88.8% | 71.2% | 91.9% | 72.7% | 87.4% |
| C=C(c1ccc(C(=O)O)cc1)c1cc2c(cc1C)C(C)(C)CCC2(C)C [Bexarotene] + COc1cc2ncnc(Nc3ccc(Oc4ccccc4)cc3)c2cc1OC [SrcI1] (first compound 2 µM, partner dose 2 µM) | 82.5% | 210% | 112% | 95.2% | 89.5% | 105% | 115% | 124% | 107% |
| NC1(c2ccc(-c3nc4ccn5c(=O)[nH]nc5c4cc3-c3ccccc3)cc2)CCC1 + COc1ccc2c(c1)CCC1C2CCC2(C)C(NCCCCCCN3C(=O)C=CC3=O)CCC12 [U73122] (first compound 0.4 µM, partner dose 0.4 µM) | 66.7% | 70.1% | 110% | 86.4% | 90.3% | 102% | 81.7% | 77.6% | 87.3% |
| NC1(c2ccc(-c3nc4ccn5c(=O)[nH]nc5c4cc3-c3ccccc3)cc2)CCC1 + CC(C)CCN1c2nc(Nc3cc(F)c(O)c(F)c3)ncc2N(C)C(=O)C1C [BID1870] (first compound 0.4 µM, partner dose 0.2 µM) | 55.7% | 83.7% | 94.1% | 98.4% | 92.5% | 83.6% | 86.9% | 115% | 83.6% |
| NC1(c2ccc(-c3nc4ccn5c(=O)[nH]nc5c4cc3-c3ccccc3)cc2)CCC1 + OCCn1cc(-c2cnc3nnn(Cc4ccc5ncccc5c4)c3n2)cn1 [PF04217903] (first compound 0.4 µM, partner dose 1 µM) | 75% | 73.6% | 97.6% | 108% | 99.1% | 90.8% | 93.6% | 115% | 86.3% |
| CCCS(=O)(=O)Nc1ccc(F)c(C(=O)c2c[nH]c3ncc(Cl)cc23)c1F + O=C(O)c1ccc(-c2c[nH]c3ncc(-c4ccccc4)cc23)cc1C1CCCC1 [GSK650394] (first compound 0.08 µM, partner dose 0.16 µM) | 89.8% | 99.3% | 113% | 71.7% | 94.6% | 87.1% | 103% | 124% | 80.1% |
